Over roughly 33,000 sequences, “E-score (-0.5 to 0.5)” has its median near -0.013; the highest 2% begin near 0.3. This is one part of the list.
What follows are sequences tested against T1, Msn1 (UniProt P22148) (assay: PBM E-score (8-mer binding enrichment) (E-score (-0.5 to 0.5)); higher = stronger / more preferred TF binding; most listed sequences are background and not binding sites). Conditions: protein concentration: 200 nM; construct: GST-full length.
T1 sequence: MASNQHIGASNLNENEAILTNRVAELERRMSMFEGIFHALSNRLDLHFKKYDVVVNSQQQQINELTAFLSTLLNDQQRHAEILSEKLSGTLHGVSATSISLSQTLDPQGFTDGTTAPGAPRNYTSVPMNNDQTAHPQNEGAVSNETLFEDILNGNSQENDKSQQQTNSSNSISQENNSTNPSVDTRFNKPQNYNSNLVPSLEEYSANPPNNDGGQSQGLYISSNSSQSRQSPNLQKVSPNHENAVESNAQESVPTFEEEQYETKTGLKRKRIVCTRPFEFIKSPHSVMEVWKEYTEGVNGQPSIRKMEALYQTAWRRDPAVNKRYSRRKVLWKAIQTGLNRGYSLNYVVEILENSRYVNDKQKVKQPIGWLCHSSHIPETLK
Method in brief: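 Universal all-10-mer Agilent arrays, double-stranded by primer extension on fresh or once-stripped slides, were probed with about 100-200 nM GST-tagged yeast transcription factors made by PURExpress. Fluorescent anti-GST detected bound protein, and masliner normalised the scans. E-scores from the Universal PBM Analysis Suite were given to each ungapped eight-base word pooled with its reverse complement.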

Sequence	PBM E-score
AAACGCGG	0.188
ACTAGGAA	-0.026
ATCTCCCG	-0.12
CGTTAGTC	0.0467
AATTAGGT	0.0808
CGGACGTA	0.0131
CCGCCGAC	-0.125
GCAAATGC	-0.113
ATCGAATC	0.0784
ATTAAGCC	-0.0726
CTCTGAAA	0.0529
AGCGACCA	0.0404
CCGCCCGG	-0.125
GAGCAGTA	0.0147
CATCTATA	-0.0122
AATTATGC	0.119
GCCTCAGC	-0.159
TGAGTCAA	0.102
AGCCAGCA	-0.153
CTACTTTA	0.00684
CTCGTGTC	0.232
AACGGTAC	0.191
AATGATCA	-0.0264
GCATTCGC	-0.202
CCTGCCCC	-0.237

Sequence	PBM E-score
CCACTTAG	-0.0135
AACGCTCA	-0.0888
CTATTATC	0.104
CTCTAAGA	0.15
GACTCAAA	0.0675
CAATCTGC	0.045
GATGAGTA	-0.00618
CAGCGTCC	0.0415
CAAACACC	-0.00246
ATTCCGGC	-0.0277
GTAGGGAA	-0.0402
GTGGCTGA	-0.0321
ACAGCTTC	-0.111
GTCTTACA	0.0277
GAATCTTA	0.172
ATAAGTGC	0.0659
CAAAACCA	0.16
GTCTCAAA	0.234
GATTCACA	-0.117
AAAACCTG	0.0428
CGTCCTGA	0.102
CCCTCGTC	-0.129
CTCAAAAC	0.0824
CAGTTTAG	0.0485
CGGGATGA	-0.123

Sequence	PBM E-score
CAAACCTC	-0.244
GAACTGTA	0.0707
CTGTCAAC	0.101
CTGCTCAC	-0.139
CAAATAGG	-0.00081
GGCATCAA	-0.203
CCATCACG	-0.0678
AGACTTGG	-0.143
ACACGACC	0.0198
GTAGTGCA	-0.0542
AACTAACT	0.052
ATAGTTCC	0.0925
GCCGGTAA	0.146
CCGGCCTC	-0.233
CATCTCGA	0.149
TCAAAAGA	-0.0225
GCAGAACC	-0.134
CAAATTCG	0.0807
ACCTGCGA	-0.101
TAGCTCGA	-0.0362
AATTTGTA	0.28
CCTTCTGC	-0.234
AGGAAACA	0.205
AGGATAAA	0.18
AATTCGCG	0.0725

Sequence	PBM E-score
ACCAACGC	0.00353
CTGATGGC	-0.0801
ATTGTTAG	0.145
GTATTCTA	0.112
AATCAGCA	0.106
ACAACATA	0.235
GACGACCA	-0.121
AGACATCC	0.328
AGCCATAA	0.00903
GAGACTTA	0.0587
CTCCATGA	0.00661
AAGCGTAA	-0.0351
TCAAACGA	0.00197
GACATATA	0.448
TACTGCGA	-0.1
CACGGACA	0.455
AGGCCCCT	-0.293
CATTTTAC	0.287
ATTCATTC	0.138
GCCTGCTA	-0.162
CCACCCAC	-0.245
AGTGAGGC	-0.218
AGCACGAA	0.153
GTAAGTAC	0.139
CTTATGCA	-0.0615

Sequence	PBM E-score
ACCAAATC	0.0268
AGATTACC	0.0696
AGGTTCTC	-0.167
CTTCGGCA	-0.00159
CCTCCCAC	-0.127
TAATGGTA	-0.131
ATCTGGCC	-0.0799
GTCTTGTA	0.0838
ATACCGCC	-0.0236
TAATTGCA	0.0515
GTCTAGAC	0.0977
GCAGCTTA	-0.0395
CCCCAAGA	-0.0452
ACGAGTTA	-0.0191
ATTGTATG	0.14
AATGCCTC	-0.129
CAGCCGTC	-0.095
CGCTATTC	0.204
TAGTAACA	0.0837
AAATTGTA	0.222
GAAAGACA	0.227
CGCATGGC	-0.162
CGGCAATC	-0.0265
AGTATTTG	0.0221
GATGACGC	-0.0671

Sequence	PBM E-score
AGAGCAAC	-0.275
CCGGATCG	-0.0371
ACGTAACT	-0.0733
ATTGCGGG	-0.0275
AACGTTAT	0.0975
CTCATTCC	-0.0923
ACATACCA	0.13
GGTCGGGA	0.0212
GCAGTTCA	-0.101
CGTTCTGA	-0.109
CCGGGTTA	-0.0177
AGAACTCG	0.0198
CAGGTTTC	-0.0386
AAGACCGA	0.135
AGCGCTAT	0.0204
CTGTGAGA	0.00231
AAGCGCTC	-0.0777
GTGTGCCA	-0.0737
ATTATCCG	0.246
AAGTCAAT	0.07
ATTCCTAC	-0.0406
AGTCACGA	0.0637
CCGGAGGC	-0.104
CTCTCACA	-0.0333
CGTTACTA	0.00496

Sequence	PBM E-score
ATTCGGTG	0.0437
AGAGTCCA	-0.182
AAGCTACT	-0.101
ACCTTGCG	-0.062
CTACCGGC	-0.209
CAAAGAAA	0.0621
TTCCGGAA	0.229
AAATCCGT	0.122
GACTCTCC	-0.111
GACTGACA	0.0916
GACAGAAC	0.099
ACCCCATG	-0.124
CTGCAAGA	-0.119
ATAACCAT	-0.0897
GCTCCATA	-0.126
CGTGCTCC	-0.0405
ACCCCGGG	-0.207
ATTATCGG	-0.0402
GGGAGTCA	-0.286
CAAATGGA	0.135
CAAGCCAG	-0.0421
AGCCTATC	-0.179
ACTGTACG	-0.16
ATAACGTG	0.0753
ACACTGGT	-0.0253

Sequence	PBM E-score
AATCCACC	-0.139
CCGTACAA	0.216
CGAGCCAG	0.0425
AAGCTAAA	0.12
CAGTTGCG	0.0743
ACAGTTTG	-0.032
CGGTCACC	-0.218
ATTTTGAG	0.199
AGCGGGCA	-0.334
AACAGCTC	-0.105
GCGCCCCA	-0.216
AGGAAATG	0.155
TAAGTAAA	0.00181
ACGATTAT	0.174
AGCAGGTG	-0.115
AACCGCCT	-0.012
CACAAAAA	0.195
CACTAGCC	-0.0503
ATGTGCAA	-0.0959
ATATGAAG	0.0526
GCTGGTTA	-0.0243
CATACCAG	0.0219
AAAGTTAG	0.184
ATGTCGCC	0.115
GTAAGCTA	0.0896

Sequence	PBM E-score
ACTTCTGA	-0.0769
CAAACAAC	0.185
ATAAACCC	0.158
ACTACCTC	-0.14
TAAGCCGA	0.178
AAGTGAGC	-0.206
CCCACACA	-0.202
ACGACCTG	-0.191
GGGGATGA	-0.219
ACTTACCC	0.0592
CCTGATGA	0.0044
GACAACGC	0.137
AAGAATCG	0.19
AGCGTCAG	-0.107
ACTTCGTA	-0.114
GCCACCCA	-0.322
ATCAATTG	0.154
ACCTCGCG	-0.0475
CTCTTTGA	-0.187
ATGAAGGA	0.134
GAGTCATC	-0.114
AACTCCTT	-0.0416
CTGGATGC	-0.271
ACGTGCAG	-0.139
GTTATGAA	0.105

Sequence	PBM E-score
CAATTGAA	0.0128
CCGTTGCA	0.0113
CGCTGAAG	-0.071
ACCTACCG	-0.0682
AAGCCTAA	0.019
ATGCATGA	-0.00362
CTAGACTC	-0.309
AAGTCTCC	-0.104
CATGAGCA	0.0132
CAATTGTG	-0.00904
ATACCGTC	0.109
AGCCACAC	0.11
AAACTCAT	0.168
CGCAGATC	-0.038
CTGATACA	0.0101
CGACTACG	-0.097
CGAGTCAA	-0.00305
CGGCGCCG	0.251
TAAACTCA	0.0791
AACTCTCC	-0.0972
AGACATGC	0.21
TGCGTGAA	0.175
CGAAACAG	0.0379
AAGGGGTA	-0.311
AACACCGA	-0.138

Sequence	PBM E-score
CAGCTGTC	0.0733
AGGTGCAT	0.0811
GCTACCAC	-0.175
AATCTACT	0.0111
GCATCGAA	-0.181
AGCTCGCC	-0.126
GCATCACA	-0.0397
GTCTTGCA	-0.00986
GCCTACAC	-0.184
CTGCGGGA	-0.211
ATTCGTGG	-0.0146
AGACCGTG	-0.0524
ACGTGAGC	-0.164
GAATCCGC	-0.0348
TAACATCA	0.0674
ACCCAGGG	-0.384
CCGACCGC	-0.316
TAGGACGA	0.135
ACGCGTCA	0.184
GTCTGACA	0.121
AAGTGGCC	-0.29
ATTGCGTA	0.0558
ATAGCTAT	-0.108
CATCCGCG	0.192
AATGACGT	-0.0245

Sequence	PBM E-score
AAGTACTA	0.199
TGATCCAA	-0.0438
ACTATACA	0.0458
TAATATGA	0.167
CGAGGGTA	-0.173
ATAAGGAT	0.161
CGTAATGA	-0.0929
CTTGAAGA	-0.0785
ACAGCTTA	0.0798
CGGCATCA	0.0925
GCTGGTAA	-0.181
AGTAGTTA	-0.0855
GTAAAACA	-0.195
CTCGAGAA	0.133
ATGCTAGG	-0.0818
CGCTATGA	0.0946
AGTCGGAT	0.123
CGAGCCCA	-0.221
ACCGCTAC	-0.215
AGTCGCCC	-0.151
CGGCGTCC	0.00251
CAATGAGC	0.0523
AAGTCATT	-0.0134
AGAGGTAG	-0.163
TATAAAAA	0.318

Sequence	PBM E-score
GGTGATGA	0.0664
CAACACCA	-0.0253
AAACGAAC	0.0897
CGCTACCA	-0.176
GGAGATGA	-0.0581
TACGAGCA	-0.0169
GTTGCTGA	-0.0728
CCTTTTCC	-0.0977
ACAAACAC	0.337
CATCAACC	0.106
CATTTTGC	0.0966
GGTCAACA	0.173
AGGGATAC	-0.144
AACCAGCG	0.021
GTTCATGA	0.196
CTCAATAC	0.143
CATTAGCG	-0.0271
AGCGCATG	-0.0257
AGAGATGA	-0.0111
AGCAGAAA	0.149
ATGCTCAG	0.00121
ACTAGAAA	-0.026
AACCCAAC	-0.00573
GATTCCTA	-0.146
TAGTCCCA	0.0594

Sequence	PBM E-score
ACTTTGAC	0.203
ATGAAGCA	-0.0372
CGAATCCA	-0.0683
ATTTAAGC	0.195
GTGCATTA	0.0257
GCAGCCTA	-0.0732
TGTATACA	0.261
GGCACCTA	-0.21
AGCATCTA	-0.17
CACATCGG	0.0607
AAACATTG	-0.00791
AGTCGAGC	-0.201
AGTAATTC	0.0549
AGAGAATA	0.184
ACACCCAG	-0.123
TCCCTTCA	-0.0408
AACATCGG	0.0605
AATAAGGG	0.0173
CTATCCAA	-0.187

— the supplement of paper PMC3334620
